Reference: PubChem BioAssay AID1347073 (National Center for Advancing Translational Sciences (NCATS), 2019)
The campaign covered roughly 45,000 compounds. About 200 (0.44%) were called active. Roughly 7% stayed inconclusive and do not appear here. Calls come from the whole dose curve; as a rule, active = well fitted activation curve with a large enough effect; inconclusive = small, poorly fitted or top-dose-only effect; inactive = no such curve, though single readings can be large or run the other way. The list shows a part of the results.

Assay: qHTS of TDP-43 Inhibitors: NCGC Sytravon Library Screen; note: 0% is about no effect; nearly all actives have a fitted effect of over 55% in size
Conditions: yeast TDP-43 toxicity rescue, BacTiter-Glo growth, 24 h; series mostly up to 46.1 µM; growth rescue (activation): at the top concentration
Summary of the method: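 TDP-43-expressing yeast, pregrown in raffinose, seeded at OD600 0.02 in galactose medium with compound for 24 hr at 30 deg C. Growth read by BacTiter-Glo luminescence, so rescue of toxicity appears as activation.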

Structure (SMILES) | growth rescue (activation)
COc1ccc(N/C=C/C(=O)c2ccc(Cl)cc2)cc1 | inactive: 4.41%
NS(=O)(=O)c1ccc(CNC(=S)Nc2ccc(Cl)c(Cl)c2)cc1 | inactive: 25.1%
COCCCn1cc(C(=O)c2ccccc2OCC(=O)Nc2cccc(F)c2)cc(C#N)c1=O | inactive: 4.5%
COCCCNc1nc2nonc2nc1N1CCN(Cc2cccc(C)c2)CC1 | inactive: 1.64%
Oc1ccc(Nc2nc(-c3ccc(Cl)cc3)nc3ccccc23)cc1 | inactive: -38.8%
Cc1ccsc1CN(C)Cc1nc(C2CC2)no1 | inactive: 11%
COc1ccc(S(=O)(=O)N2CCC3(CC2)OCCO3)cc1 | inactive: 8.17%
CCOc1ccc(C(=O)/C=C/Nc2ccc(S(=O)(=O)Nc3onc(C)c3C)cc2)cc1 | inactive: -13%
C=CCn1c(C)nc2c(sc3nc4c(cc32)COC(C)(C)C4)c1=O | inactive: 12.8%
CC(=O)Nc1cc(-c2cccc(C(=O)N(C)C)c2)cn2c(-c3cccc(C(F)(F)F)c3)cnc12 | inactive: -2.79%
Cc1ccc(-c2nnn(CC(=O)N(CCN3CCOCC3)C(C(=O)NC(C)(C)C)c3ccco3)n2)cc1 (stereo unspecified) | inactive: 4.4%
CCc1n[nH]c(=S)n1/N=C/c1cc(Br)c(OC)cc1OC | inactive: 22.5%
C/C(=N\NC(=O)c1c(C)nc2ccccn12)c1ccc(N2CCOCC2)cc1 | inactive: 1.01%
COc1ccc(NC(=O)C2CCC(CNc3c(N4CCCCC4)c(=O)c3=O)CC2)c(OC)c1 (stereo unspecified) | inactive: -16.7%
Cc1c(NS(=O)(=O)c2cccc(C(=O)NCc3ccccc3)c2)c(=O)n(-c2ccccc2)n1C | inactive: 0.673%
COc1cc2[nH]c3c(=O)n(N)c(=O)[nH]c3c2cc1OC | inactive: 6.07%
CS(=O)(=O)c1cccc(C(=O)NCc2ccc(F)cc2)c1 | inactive: 8.04%
CN1CCCC(OC(=O)c2cccc(Cl)c2)C1 (stereo unspecified) | inactive: 5.81%
CCOc1ccc(NC(=O)CSc2nc(-c3cccs3)cc(C(F)(F)F)n2)c([N+](=O)[O-])c1 | inactive: 16.3%
O=C(CSc1nc2c(c(=O)[nH]1)CCC2)Nc1ccccc1Cl | inactive: 10.1%
COc1ccccc1CNC(=O)c1cc(=O)c2ccccc2o1 | inactive: 6.38%
CCc1nc2ccc(C(=O)NCCCN3CCCC3=O)cn2c1N(C)CCC(C)C | inactive: 10.9%

Structure (SMILES) | growth rescue (activation)
O=C(CCC(=O)Nc1ccc(Cl)cc1)N/N=C/c1ccc2c(c1)OCO2 | inactive: 9.49%
O=[N+]([O-])c1c(NCc2ccccc2)cc(N2CCc3ccccc3C2)c2nonc12 | inactive: 3.09%
Cc1cc(C(F)F)nn1CC(=O)NC1C(=O)N2C(C(=O)O)=C(CSc3nnnn3C)CSC12 (stereo unspecified) | inactive: 2.83%
COc1ccccc1OCC(=O)OCC(=O)Nc1sccc1C(N)=O | inactive: -10.5%
CCc1ccc(NC(=O)CNCc2ccc(OC)c(OC)c2)cc1 | inactive: 10.4%
COc1ccc(Br)cc1S(=O)(=O)NCCCN1CCOCC1 | inactive: -11.2%
N#Cc1c(C(F)(F)F)cc(-c2ccccc2)nc1SCc1nc(N)nc(N2CCOCC2)n1 | inactive: 27.3%
Cc1ccc(N/N=C(\C#N)C(=N)N2CCCCC2)cc1 | inactive: -15.9%
COc1ccc(N/C=C/C(=O)C(C)(C)C)cc1 | inactive: -6.47%
CC1=C(C(=O)OCC2CCCO2)C(c2ccccc2)C2=C(CC(C)(C)CC2=O)N1 (stereo unspecified) | inactive: -3.89%
CCOc1cc(CNn2cnnc2)cc(Cl)c1OCC(=O)NC(C)(C)C | inactive: -5.89%
O=S(=O)(c1ccc(Cl)cc1)N1CCN(CCc2ccccc2)CC1 | inactive: -10.9%
CC(C)NC(C(=O)Nc1cc(Cl)cc(Cl)c1)c1ccccc1 (stereo unspecified) | inactive: 14.5%
COc1cccc(NC(=O)N2CCN(c3nnnn3-c3ccccc3)CC2)c1 | inactive: 0.336%
COc1ccc(CN2CCN(Cc3c[nH]c4ccccc34)CC2)cc1 | inactive: -15.1%
COc1cc(NC(=O)c2cc(OC)c(OC)c(OC)c2)c2ncccc2c1 | inactive: 21.1%
COc1ccc(-c2cc3nc(NCCN4CCCC4)n(C)c(=O)c3s2)cc1OC | inactive: 8.45%
CC(=O)c1ccc(N(C(=O)c2ccco2)C(C(=O)NC2CCCC2)c2ccc(N3CCOCC3)cc2)cc1 (stereo unspecified) | inactive: -2.43%
CCCCN(CC)CCCNC(=O)c1ccc(CSc2nc3ccncc3[nH]2)cc1 | inactive: 9.62%
O=C(O)c1ccc(NC(=O)c2cn(-c3ccccc3)nc2-c2ccc(F)cc2)cc1 | inactive: 4.07%
COc1ccc(NC(=O)c2cc(C3CCCCN3C(=O)CCCc3ccccc3)on2)c(C)c1 (stereo unspecified) | inactive: 10.2%
N#Cc1ccsc1NC(=O)CCN1C(=O)C2CCCCC2C1=O (stereo unspecified) | inactive: -8.02%

Structure (SMILES) | growth rescue (activation)
Nc1cc(F)ccc1N1CCCCCC1 | inactive: 12.3%
CCCC1CCC(=NNS(=O)(=O)c2ccc(C)c([N+](=O)[O-])c2)CC1 (stereo unspecified) | inactive: 4.85%
COc1ccc2nc(Cl)c(C3CC(c4ccco4)=NN3C(=O)CCCC(=O)O)cc2c1 (stereo unspecified) | inactive: 11%
COc1cc(CN(C)c2ccc(S(=O)(=O)N3CCCC3)cn2)ccc1OC(F)F | inactive: 1.74%
CC(C)Nc1nc(Nc2ccc(F)cc2)c2sccc2n1 | inactive: 12.7%
Cc1cc(N2CCCC2=O)cc(C)c1S(=O)(=O)Nc1c(C)nn(C)c1C | inactive: 2.76%
O=C(O)c1ccc(N/N=C/c2ccc(F)c(F)c2)cc1 | inactive: -84.9%
COc1ccc(NC(=O)N2CCN(c3nc4ccccc4n3C(C)C)CC2)cc1 | inactive: -1.45%
CN(C)c1ccc(C(O)P(=O)(OC2CCCCC2)OC2CCCCC2)cc1 (stereo unspecified) | inactive: -7.15%
Cc1ccc(C(=O)NCCNC(=O)c2cccnc2)cc1 | inactive: -11.8%
Cc1ccc2cc3c(nc2c1)OCC3 | inactive: 17.5%
CNc1nc(-c2c(C)[nH]c3ccc(OC)cc23)cs1 | inactive: -18.7%
COc1ccc(NC(=O)N/C=C/c2ccccc2)cc1 | inactive: -8.37%
O=C(O)C1C2C=CC(O2)C1C(=O)NCCc1cccc(Cl)c1 (stereo unspecified) | inactive: -4.02%
Cc1ccccc1C1NC(c2ccccc2C)C([N+](=O)[O-])C(C)(C)C1[N+](=O)[O-] (stereo unspecified) | inactive: 0.172%
COc1cc([N+](=O)[O-])cc(/C=N/NC(=O)C(C)Nc2cccc(C)c2)c1O (stereo unspecified) | inactive: 14.9%
COc1cc(C(=O)NCc2ccncc2)cc(OC)c1OC | inactive: 6.33%
O=C(c1ccc(CN2CCc3ccccc3C2)cc1)N1CCN(c2ccccc2)CC1 | inactive: 13.8%
S=C(NCc1ccccc1)NCc1ccc(CNC(=S)NCc2ccccc2)cc1 | inactive: 19%
CCS(=O)(=O)N1Cc2ccccc2CC1C(=O)Nc1cccc(OC)c1 (stereo unspecified) | inactive: -1.32%
Cc1ccc(S(=O)(=O)N2CCCCC2C(=O)O)s1 (stereo unspecified) | inactive: -28.3%
COC(=O)C(C(C)C)N1CCc2c(C)nc3c(C#N)cnn3c21 (stereo unspecified) | inactive: 22.8%

Structure (SMILES) | growth rescue (activation)
CCOc1ccc(S(=O)(=O)N2CCN(C(=O)c3cccn3C)CC2)cc1 | inactive: 32.3%
CCc1ccccc1NC(=O)c1ccc(OCc2c(C)noc2C)cc1 | inactive: 14.6%
O=C(NCC1CCCO1)C1CCN(C2CCN(Cc3ccco3)CC2)CC1 (stereo unspecified) | inactive: -17.8%
Cc1ccc(S(=O)(=O)N(C)CCCC(=O)NC(C)(C)CO)cc1 | inactive: -23.2%
COc1ccc(C(C(=O)NC2CCCC2)N(Cc2cccnc2)C(=O)c2snc(C(N)=O)c2N)cc1 (stereo unspecified) | inactive: -15.5%
CCCC(O)(c1ccc(Cl)cc1)C(CN1CCOCC1)c1ccc(Cl)cc1 (stereo unspecified) | inactive: 2.4%
COc1cc(C=O)ccc1OCC(=O)NC(C)(C)C | inactive: -4.82%
Cc1ccc(OCC(=O)NCCCNC(=O)c2ccco2)cc1 | inactive: -5.27%
O=C1CN(CC(=O)NC(=O)NCc2ccccc2)CCN1 | inactive: 2.88%
CN(C)CCNc1ccc(-c2n[nH]c(=O)c3ccccc23)cc1[N+](=O)[O-] | inactive: -4.67%
CC(C)OP(=O)(OC(C)C)C(Nc1cccc(C(=O)O)c1)c1ccccc1 (stereo unspecified) | inactive: -4.2%
Cc1ccc(S(=O)(=O)N(C)C)cc1NC(=O)C(C)OC(=O)c1ccc2c(c1)OCCO2 (stereo unspecified) | inactive: 14.8%
O=C(N/N=C/c1c(O)ccc2ccccc12)c1ccc(CO)nc1 | inactive: -15%
COC(=O)c1cc(Br)c(=O)n(Cc2ccco2)c1 | inactive: 14.2%
CCNC(=O)C1(C)CCCN(Cc2ccc(-c3ccccn3)cc2)C1 (stereo unspecified) | inactive: 2.34%
Cc1nc(C(F)(F)F)ccc1C(=O)N1CCCC(C)(C(=O)O)C1 (stereo unspecified) | inactive: 6.69%
COc1ccc(NC(=O)C2(C)CCN2Cc2ccc(OC)c3ccccc23)cc1OC (stereo unspecified) | inactive: 1.27%
CCC1CCCCN1C(=O)COC(=O)c1n[nH]c2ccccc12 (stereo unspecified) | inactive: -0.372%
FC(F)(F)c1ccccc1N/N=C/c1cccnc1 | inactive: -8.07%
O=C(NCC1CCCO1)c1cnc(Cl)c(Cl)c1 (stereo unspecified) | inactive: 3.75%
CCOC(=O)c1c(C)[nH]c(C)c1C(=O)CSc1nc2ccccc2c(=O)n1-c1ccccc1C | inactive: -14.6%
CCc1cccc(NC(=O)CN(C)S(=O)(=O)c2cccs2)c1 | inactive: 18.4%

Structure (SMILES) | growth rescue (activation)
O=C(c1cnn2c(C(F)F)cc(-c3ccccc3)nc12)N1CCCCC1c1cccnc1 (stereo unspecified) | inactive: 29.1%
O=C(Nc1cccc(C(=O)O)c1)/C(=C\c1ccc2c(c1)OCO2)NC(=O)c1ccccc1 | inactive: -4.95%
O=[N+]([O-])c1ccc(Nc2nc(NC3CCCCC3)nc(N3CCCC3)n2)cc1 | inactive: 11.1%
Cc1cnc(NC(=O)c2cncc(Br)c2)s1 | inactive: 1.25%
O=C(Nc1cccc(Cl)c1)c1cc(S(=O)(=O)NCCc2ccc(Cl)cc2)ccc1F | inactive: 18.8%
Cc1cc(C)c(NC(=O)COC(=O)Cn2nc(-c3ccccc3)oc2=O)c(C)c1 | inactive: 12.8%
O=C1c2cccc3c([N+](=O)[O-])ccc(c23)C(=O)N1CC1CCCO1 (stereo unspecified) | inactive: -16%
O=C(CN1CCC(NC(=O)C2CCCCC2)CC1)Nc1cccc(F)c1 | inactive: -8.68%
COc1ccc(N(CC(=O)Nc2ccc3c(c2)OCO3)S(=O)(=O)c2ccccc2)cc1 | inactive: 2.84%
Cc1occc1C(=O)N/N=C/c1ccc2c(c1)OCO2 | inactive: 6.94%
CCN(CC)CCN(C(=O)c1ccc(CN2CCCCC2)o1)C(C(=O)NC1CCCCC1)c1ccc(F)cc1 (stereo unspecified) | inactive: -2.82%
NC(=S)NNC(=O)Nc1cccc(Cl)c1 | inactive: -10.5%
O=C(O)C1C(=O)NCC1c1ccccc1 (stereo unspecified) | inactive: 5.38%
CC1=NN(c2ccccc2)C(=O)/C1=C\c1cn(-c2ccccc2)nc1C | inactive: -5.92%
COc1ccc(C(C(=O)NCC2CCCO2)N(C(=O)CNC(=O)c2ccco2)c2cc(C)cc(C)c2)cc1OC (stereo unspecified) | inactive: 6.85%
COc1cccc(CNC(=O)COC(=O)c2cccc(S(=O)(=O)N3CCCC3)c2)c1 | inactive: 5.24%
COc1ccc(CNc2cccc3[nH]c(C(F)(F)F)nc23)cc1 | inactive: -14.8%
COC(=O)c1cc(Br)c(=O)n(CCN(C(C)C)C(C)C)c1 | inactive: 0.55%
